Out of some 110,000 compounds screened, about 230 (0.21%) showed an effect of 50% or more. The list shows a part of the results.
Target: DPAP1 (Plasmodium falciparum, UniProt Q8IIJ9)
Assay: primary screen, percent inhibition; read by cleavage of a fluorogenic dipeptide substrate; higher = more effect of the substance
Parameters: species or system P. falciparum D10 trophozoite lysates; single well
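Also: 30 min substrate incubation versus DMSO and 10 µM JCP410 controls.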

DPAP1, sequence (Q8IIJ9 whole entry, looked up): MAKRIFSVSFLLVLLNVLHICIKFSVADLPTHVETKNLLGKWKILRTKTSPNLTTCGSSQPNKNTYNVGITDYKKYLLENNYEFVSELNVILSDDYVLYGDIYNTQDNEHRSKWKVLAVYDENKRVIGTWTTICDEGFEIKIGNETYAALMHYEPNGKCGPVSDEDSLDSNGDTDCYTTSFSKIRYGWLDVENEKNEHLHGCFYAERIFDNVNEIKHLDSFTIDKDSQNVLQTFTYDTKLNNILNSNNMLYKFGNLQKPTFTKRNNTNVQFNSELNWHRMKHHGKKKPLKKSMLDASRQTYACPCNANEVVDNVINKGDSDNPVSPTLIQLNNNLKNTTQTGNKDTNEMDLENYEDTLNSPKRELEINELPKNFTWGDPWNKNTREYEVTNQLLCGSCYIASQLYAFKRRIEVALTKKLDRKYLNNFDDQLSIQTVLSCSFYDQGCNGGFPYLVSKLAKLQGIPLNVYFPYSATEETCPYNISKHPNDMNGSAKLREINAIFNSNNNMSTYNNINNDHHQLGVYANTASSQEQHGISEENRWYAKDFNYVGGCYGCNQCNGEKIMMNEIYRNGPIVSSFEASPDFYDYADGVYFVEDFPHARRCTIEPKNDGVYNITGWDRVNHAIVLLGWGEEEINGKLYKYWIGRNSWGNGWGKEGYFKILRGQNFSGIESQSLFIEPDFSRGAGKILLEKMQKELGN

SMILES	% Inhibition @ 10 uM [%]
COc1cc(C(=O)N2CCN(c3ncc(C(F)(F)F)cc3Cl)CC2)cc(OC)c1OC	0.776
Cc1cc(CN2CCN(C(=O)c3ccco3)CC2)cs1	4.65
COc1ccc2c(C)cc(S)nc2c1	-8.01
Cc1cc(C)c(S(=O)(=O)N2CCCCC2)cc1S(=O)(=O)N1CCCCC1	4.03
Cc1cccc(COn2cccc(C(=O)Nc3nc4ccccc4s3)c2=O)c1	1.72
COC(=O)c1ccc(/C=c2\sc3nnc(-c4cccc(C)c4)n3c2=O)cc1	-1.82
Cc1ccc(-c2nc(S(=O)(=O)c3ccc(Cl)cc3)c(N3CCOCC3)o2)cc1	-3.04
N#C/C(=C\c1ccccc1[N+](=O)[O-])c1nc(-c2ccc(Cl)cc2)cs1	-7.57
O=C(CN1C(=O)c2ccccc2C1=O)Nc1cccc(Cl)c1	-3.92
O=C(c1cc(=O)c2cc(Cl)ccc2o1)N1CCC(Cc2ccccc2)CC1	0.248
CC(C)C[C@H](NC(=O)OCc1ccccc1F)C(=O)NCC#N	-3.04
Cc1c(C#N)c(=O)ncn1-c1ccc(Cl)cc1	9.08
CCN(CC)CC#CC(O)(c1ccccc1)c1cccnc1 (stereo not shown)	-0.902
CCOC(=O)c1nnn(-c2nonc2N)c1CN1CCc2ccccc2C1	9.19
Cc1[nH]nc(Nc2ccc(C(=O)O)cc2)c1[N+](=O)[O-]	3.31
Cc1ccc(C)c(NC(=O)C(C)Oc2ccccc2C)c1 (stereo not shown)	-0.95
CC(C)C(=O)Nc1ccc(NC(=O)COc2ccc(Br)cc2)cc1	17.5
CCOc1ccc(C2C(C(N)=O)=C(C)Nc3nc(-c4cccc(C)c4)nn32)cc1 (stereo not shown)	-1.47
CC(C)c1ccc(CN(C(=O)c2ccco2)C2CCS(=O)(=O)C2)cc1 (stereo not shown)	6.79
CCC(=O)Nc1ccc(N2CCN(S(C)(=O)=O)CC2)cc1	-0.737
O=C1c2ccccc2NC(c2cccc(O)c2)N1c1ccc(F)cc1 (stereo not shown)	0.163
O=C(Oc1ccccc1)c1sc2ccccc2c1Cl	5.5
O=C(CSc1nc(O)c2cnn(-c3ccccc3)c2n1)N1CCOCC1	-5.22
CN1c2ccccc2NC2ONC(c3ccc(Br)cc3)=NC21 (stereo not shown)	3.15
CCc1ccc(/C=C2\SC(N3CCCC3)=NC2=O)cc1	3.72

SMILES	% Inhibition @ 10 uM [%]
CCOc1ccc(N(C(C)C(=O)N2CCC(C)CC2)S(C)(=O)=O)cc1 (stereo not shown)	-10.7
O=C(c1ccc(Cl)cc1)C12CN3CN(CN(C3)C1)C2	-4.39
CC(C(=O)Nc1cccc(F)c1)N1C(=O)c2ccccc2C1=O (stereo not shown)	3.93
CCOCCCN(Cc1ccco1)C(=O)c1cc2c(Cl)nc3ccccc3c2s1	1.1
CCS(=O)(=O)C1=NN2C(=N)/C(=C\c3cc(C)n(-c4ccccc4OC)c3C)C(=O)N=C2S1	-3.35
Cn1c(=O)c(C(=O)c2cccnc2)c(O)c2ccccc21	5.73
Cc1nnc(N2CCC(C(=O)NCc3cccnc3)CC2)c2nn(-c3ccc(Cl)cc3)c(C)c12	5.84
COc1cc(OC)cc(C(=O)Nc2nc(-c3nnn(-c4cccc(Cl)c4C)c3C)ns2)c1	-4.52
OC1(c2ccc(Cl)cc2)C[N+](c2ccc(Cl)cc2)=C2SCCCN21 (stereo not shown)	-1.4
CN(C)C(CNC(=O)c1cccs1)c1cccnc1 (stereo not shown)	2.9
CC1CCCC(NC(=O)c2cc3c(s2)-c2ccccc2OC3)C1C (stereo not shown)	0.291
CC1=C(C(=O)OC2CCCC(C)C2)C(c2ccccc2Cl)NC(=O)N1 (stereo not shown)	4.61
CC(C)NC(=O)N1Cc2ccccc2-n2cccc2C1c1ccccc1 (stereo not shown)	3.53
Clc1ccc(C(NC2CCN(CCc3ccccc3)CC2)c2ccccc2)cc1 (stereo not shown)	1.57
O=C(Nc1ccccc1Br)c1ccc(N2C(=O)c3ccccc3C2=O)cc1	3.03
O=C(Nc1ccc2c(c1)OCO2)c1cc2nc(-c3ccco3)cc(C(F)(F)Cl)n2n1	2.02
O=C1CC(c2cc3c(cc2Br)OCO3)C2=C(CCCC2=O)N1 (stereo not shown)	2.35
O=C(NCc1cccnc1)C1CCCN(S(=O)(=O)N2CCC3(CC2)OCCO3)C1 (stereo not shown)	-1.97
Cc1cc(C)c(C#N)c(SCCN2CCOCC2)n1	-0.267
CC1(C)C(C)(C(=O)O)C12CCC2C(=O)NCc1ccco1 (stereo not shown)	-3.92
CCC(CC)COC(=O)C1=C(C)NC(=O)CC1c1ccc(Cl)cc1Cl (stereo not shown)	4.23
Cc1ccc(N2C(=O)/C(=C\N3CCOCC3)c3ccccc3C2=O)cc1	-8.49
CC(=O)NC1(CC(=O)C(C)(C)C)CCC1	-0.415
COc1cc(C2NC(=O)NC(C)=C2C(=O)NCc2ccccc2)ccc1OCC(N)=O (stereo not shown)	-1.16
CC(C)N(Cc1nc(-c2ccccc2)no1)C(=O)COc1ccccc1Cl	-0.942

SMILES	% Inhibition @ 10 uM [%]
CC1=C(C#N)C(c2ccc(O)cc2)C2=C(O)CCCC2=N1 (stereo not shown)	2.16
Cc1nc2ccccc2n1CCOc1ccccc1	2.57
Cc1ccc(N(CC(=O)Nc2ccccc2F)S(C)(=O)=O)cc1C	-1.43
Fc1ccccc1-n1nnnc1SCc1cc2c(cc1Cl)OCO2	4.66
CC(CCc1ccccc1)NC(=O)c1cc(O)nc2ccc(S(=O)(=O)N3CCCCC3)cc12 (stereo not shown)	3.81
CN1CCN(C(=O)c2cc3ccc4cccnc4c3[nH]2)CC1	0.711
Cc1ccc2c(c1)n(Cc1ccccc1)c(=O)n2Cc1ccccc1	-1.22
O=C(O)c1cc(Sc2ccc(Cl)cc2)nc2ccccc12	-0.406
COc1ccccc1C(=O)Nc1ccc(S(N)(=O)=O)cc1	-2.74
CCOCCCNC(=O)c1c(NC(=O)c2nc(S(C)(=O)=O)ncc2Cl)sc2c1CCC2	-4.64
COc1ccc(-n2c3c(c(=O)[nH]c2=O)C(C(F)(F)F)(C(F)(F)F)NC(c2cccs2)=N3)cc1	0.83
N#Cc1ccccc1Cn1c(-c2nonc2N)nc2ccccc21	0.52
COc1ccc(OC)c(S(=O)(=O)c2cc3cccc(OC)c3oc2=O)c1	3.75
CC(C)c1cccc(OCCOCCN2CCNCC2)c1	-7.58
Cc1ccc(-c2c(C(=O)O)oc(=O)c3ccccc23)cc1C	0.936
C/C=C/CSc1nc2c(c(=O)[nH]c(=O)n2C)n1C(C)C	-1.44
CC(C)(C)NC(=O)/C(=C\c1ccco1)NC(=O)c1cccs1	-4.8
CCCN1CCN(CCCNC(=O)c2cnc(SC)nc2-c2ccccc2)CC1	-0.742
CCOC(=O)c1c(NC(=O)CCCOc2cccc(C)c2)sc(C)c1C	-1.25
CCCCC(=O)Nc1cc(-c2ccc(C)cc2)no1	-1.47
CCN(Cc1ccccc1)C(=O)Cn1ncc2c1-c1ccccc1OC2	-2.42
Cc1ccc(CNC(=O)C2CCCN2S(=O)(=O)c2ccc3[nH]c(-c4ccccc4)nc3c2)cc1 (stereo not shown)	2.51
CC(C)Oc1ccccc1/C=C1\SC(N2CCOCC2)=NC1=O	-3.06
CCOc1ccc(C(=O)C2=C(O)C(=O)N(Cc3ccccc3)C2c2cccc(O)c2)cc1 (stereo not shown)	1.93
Nn1c(COc2ccccc2)nnc1SCc1cc(O)nc2ccccc12	-4.35

SMILES	% Inhibition @ 10 uM [%]
CC1CC(C)CN(C(=O)CSc2nnc(Cc3ccccc3)o2)C1 (stereo not shown)	8.63
COc1cccc(OCC(O)Cn2c(C)nc3ccccc32)c1 (stereo not shown)	-9.45
O=S(=O)(NCc1ccccn1)c1ccc(Br)cc1Br	4.1
O=C(CSCCc1ccccn1)Nc1nccs1	-3.21
COc1ccc(CCC(=O)N(C)Cc2c(C)nn(C)c2C)cc1	6.51
COc1cc(C2C(C#N)=C(N)Oc3[nH]nc(-c4ccc(Cl)cc4)c32)cc(OC)c1OC (stereo not shown)	5.18
Cc1ccc(Cl)cc1NC(=O)CN(c1cccc2ccccc12)S(C)(=O)=O	-6.77
Cc1ccc(OCCCCCN2CCNCC2)c(C(C)(C)C)c1	-10
COc1ccc(NCc2cccnc2)cc1	4.54
Cc1cc(CSc2ccccc2)ccc1NC(=O)CN1C(=O)c2ccccc2S1(=O)=O	-1.46
N#C/C(=C/c1ccc(Cl)cc1Cl)C(=O)Nc1ccc(Cl)cc1	1
c1ccc(OCCCCCCN2CCCCC2)cc1	3.74
N#Cc1ccc(Oc2ccc(Cl)cc2)cc1C#N	-2.18
COc1ccc(OC)c(N(CC(=O)Nc2cccc3ccccc23)S(C)(=O)=O)c1	0.909
COc1ccc(C2CC(c3ccc(Br)cc3)=NN2c2ccccc2Cl)cc1 (stereo not shown)	-0.0267
C#CCOc1ccc(/C=C2/NC(=O)N(Cc3ccccc3F)C2=O)cc1OC	-6.37
COc1ccccc1-c1cc(-c2ccccc2)nc(SCC(N)=O)c1C#N	-5.62
COc1ccc(-c2nc3scc(CCNC(=O)c4ccc(Br)o4)n3n2)cc1	0.00353
COc1ccc(C(=O)Nc2cccc(C)c2)cc1	-3.04
O=c1[nH]c(=O)n(CCc2ccccc2)c2nc[nH]c12	1.91
Cc1ccc(C(=O)C2=C(O)C(=O)N(CCCn3ccnc3)C2c2ccc(F)cc2)cc1 (stereo not shown)	3.35
Cc1ccc(-n2nc3c(=O)n(CCCC(=O)NC4CCCc5ccccc54)nc(C)c3c2C)cc1 (stereo not shown)	3.33
COc1ccc(CNc2nc(-c3ccco3)nn2S(=O)(=O)c2ccc(C)cc2)cc1	-1.47
CN(C)CCCNC(=O)c1cc(-c2ccc(Cl)s2)nc2ccccc12	-2.83
COc1cccc(C2(O)CC(C(F)(F)F)=NN2C(=O)c2cccnc2)c1 (stereo not shown)	13.7
